The text below walks through data of PubChem BioAssay AID1346428 (National Center for Advancing Translational Sciences (NCATS), 2018).

“And” between values parts separate entries of the source, which are not always exact repeats. Equal entries are not always repeated. The campaign covered roughly 48,000 compounds. About 1,200 (2.5%) were called active. Inconclusive results (about 2%) are left out.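 Rule for the calls: active = activation of at least 60% and not above a set upper limit (about 1 call in 100 departs from these limits); inconclusive = activation of 40% to 60%, or above that upper limit; inactive = activation under 40%.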 This is one part of the list. More than one record can exist for a structure, and the calls need not agree.

UniProt O75388, sequence (O75388 whole entry, looked up): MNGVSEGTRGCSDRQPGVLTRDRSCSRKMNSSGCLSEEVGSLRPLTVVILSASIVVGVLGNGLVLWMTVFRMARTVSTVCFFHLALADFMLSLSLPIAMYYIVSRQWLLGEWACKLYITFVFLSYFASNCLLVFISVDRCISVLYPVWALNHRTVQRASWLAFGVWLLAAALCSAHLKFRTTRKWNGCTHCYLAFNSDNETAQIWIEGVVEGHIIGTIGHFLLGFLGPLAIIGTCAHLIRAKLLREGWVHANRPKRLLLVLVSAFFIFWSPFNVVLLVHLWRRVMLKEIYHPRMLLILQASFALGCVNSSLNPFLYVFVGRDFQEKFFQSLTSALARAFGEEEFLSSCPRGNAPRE

In this test the target is Probable G-protein coupled receptor 32 (Homo sapiens) (UniProt O75388). Kind of test: qHTS for Agonists of Human Resolvin D1 Receptor DRV1. Note: 0% is about no effect. The note with it: CHO-K1 GPR32 beta-arrestin PathHunter luminescence, 90 min; at 76.9 µM; stronger effect = higher value; zero percent set by DMSO-only wells. An outline of the steps:
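Luminescent readout of beta-Gal complementation quantifies ligand-induced beta-arrestin association with GPR32 in CHO-K1 cells; 90 min compound incubation at 37 °C, detection 1 h at room temperature.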
In general terms: In qHTS, concentration-response curves come from the screen itself.
Consider `CCCCC(CC)CNC(=O)c1ccc2c(=O)n(Cc3ccc(OC)cc3)c(=O)[nH]c2c1` (stereo not drawn), for which the activation is inactive: -5.13%.

Consider `COc1ccc(CNC(=O)Cc2c(C)c3c(cc(C)c4c(C)c(C)oc43)oc2=O)cc1`, for which the activation is inactive: -2.82%.

Regarding `CCSc1ncc(Cl)c(C(=O)Nc2nc3ccc(OC)cc3s2)n1`, the activation was inactive: -6.97%.

As to `Cc1cc(=O)n2nc(N3CCC(C(=O)Nc4ccc(C)c(Cl)c4)CC3)sc2n1`, the activation was inactive: 5.73%.

As for `Cc1ccc(N(Cc2cccs2)C(=O)c2ccc(Br)o2)cc1`, the activation was inactive: -28.1%.

Regarding `Cc1ccc(O)c(N=Nc2ccccc2)n1`, the activation is inactive: -0.291%.

For `CCc1nonc1NC(=O)c1oc2ccccc2c1C`, the activation is active: 65.5%.

Regarding `COc1ccc(CNC(=O)CCS(=O)(=O)c2ccc3c(c2)oc(=O)n3C)cc1`, the activation was inactive: 1.88%.

Turning to `Cc1ccc(CNC(=O)c2ccc3c(O)c(S(=O)(=O)c4ccccc4)c(=O)[nH]c3c2)cc1`, the activation was inactive: 6.95%.

`CCOC(=O)N1CCC(NC(=O)c2ccc3c(c2)N(Cc2ccc(F)cc2)C(=O)c2ccccc2S3(=O)=O)CC1`: the activation is inactive: -28.6%.

For the molecule `CCOc1ccc(NC(=O)C(NS(=O)(=O)c2ccc3c(c2)CCN3C(C)=O)C(C)C)cc1` (stereo not drawn), the activation is inactive: -2.11%.

With `O=C(CSc1nc2ccccc2nc1Cc1ccc(Cl)cc1)NCCc1ccccc1`, the activation is inactive: -10.4%.

On to `CCOc1ccccc1NC(=O)c1nnn(CC(=O)Nc2ccc(OC)c(OC)c2)c1N`, for which the activation is inactive: -7.34%.

For `CC(=O)c1ccc(N2CCN(S(=O)(=O)c3ccc4[nH]c5c(c4c3)CCCC5)CC2)cc1`, the activation is inactive: -5.85%.

For `O=c1c2c(-c3ccc(Cl)cc3)ccnc2[nH]n1-c1ccccc1`, the activation is inactive: 18%.

Regarding `O=C(NCCC1=CCCCC1)c1ccc2c(c1)ncn2-c1ccc(F)c(F)c1`, the activation was inactive: -15%.

As for `CC(=O)Nc1cccc(NC(=O)c2c(-c3ccccc3)c(-c3ccccc3)nn(C)c2=O)c1`, the activation is inactive: -12.6%.

On to `CCCN(CCC)C(=O)CSc1nc2sc3c(c2c(=O)n1-c1ccccc1)CCN(C(C)=O)C3`, for which the activation was inactive: -5.88%.

In the case of `CCc1ccccc1NS(=O)(=O)c1ccc2c(c1)OCC(C(=O)N1CCCC1)O2` (stereo not drawn), the activation is inactive: 0.0187%.

On to `CCOCc1cc(CN2CCN(c3cccc(Cl)c3)CC2)c(O)c2ncccc12`, for which the activation was inactive: 0.9%.

For the molecule `C=Cc1c(C)c2cc3[nH]c(cc4nc(cc5nc(cc1[nH]2)C(C)=C5CCC(=O)O)C(CCC(=O)O)=C4C)c(C)c3C=C`, the activation was inactive: 0.946% and inactive: -10.3%.

`COc1ccc(OC)c(C2c3c(oc4ccc(C)cc4c3=O)C(=O)N2CCCN(C)C)c1` (stereo not drawn): the activation is inactive: -11.9%.

Take `O=C(NCc1cccc(F)c1)c1cccc(NC(=O)c2nsc3ccccc23)c1`: the activation was inactive: -0.929%.

As to `CCc1ccc(Nc2nc(N)nc(CSc3nc4ccccc4s3)n2)cc1`, the activation is inactive: 34.8%.

Turning to `CCN(Cc1ccccc1)Cc1c(O)ccc2c(=O)c(-c3ccccc3Cl)c(C(F)(F)F)oc12`, the activation was inactive: -14.1%.

On to `Fc1ccc(-c2cn3cc(Cc4ccc(Cl)cc4)sc3n2)cc1`, for which the activation is inactive: 15.7%.

Turning to `CCOc1ccc(-c2nnc(SCC(=O)NCc3ccc(C)cc3)nc2-c2ccc(OCC)cc2)cc1`, the activation was inactive: -15.7%.

For the molecule `CCC(CC)C(=O)Nc1cccc(-c2nc3ccccc3s2)c1`, the activation is inactive: -3.61%.

On to `Cc1cccc(-n2ncc3c(NC4CCCC4)ncnc32)c1`, for which the activation was active: 114%.

In the case of `COc1cccc(CNC(=O)C2CCN(c3nnc(-n4c(C)ccc4C)s3)CC2)c1`, the activation was inactive: -19.1%.

Consider `CCc1ccc(-n2nc3ccc(NC(=O)c4ccc(C#N)cc4F)cc3n2)cc1`, for which the activation is inactive: 27.5%.

For the molecule `CCOc1ccccc1C1CC(=O)Oc2c1c(=O)n(C)c1ccccc21` (stereo not drawn), the activation was inactive: -1.97%.

With `Cc1ccc(Cl)cc1NC(=O)Cn1c(=O)c2ccccc2n2nncc12`, the activation was inactive: 1.62%.

Regarding `CCC(C(=O)Nc1cc(-c2nc3cccnc3s2)ccc1C)c1ccccc1` (stereo not drawn), the activation is inactive: -17.8%.

Take `CC1=C(C(=O)Nc2ccc(C)cc2C)C(c2ccccc2)n2ncc(C(=O)Nc3ccccc3)c2N1` (stereo not drawn): the activation is inactive: -15.1%.

On to `CCOC(=O)c1c(-c2ccccc2)csc1NC(=O)c1cc(-c2ccc(Cl)cc2)on1`, for which the activation was inactive: -0.28%.

For `Cc1ccccc1-c1nc2cc(NC(=O)COc3ccc(F)cc3)ccc2o1`, the activation was inactive: 16.2%.

Regarding `Cc1c(CC(=O)NCCc2ccc(Cl)cc2)c(=O)oc2c(C)c3occ(C(C)(C)C)c3cc12`, the activation was inactive: -20.2%.

In the case of `Cc1ccc(NC(=O)C2CCCN(S(=O)(=O)c3cccc4cccnc34)C2)c(C)c1` (stereo not drawn), the activation was inactive: -23.9%.

Regarding `COC(=O)c1ccc2c(=O)n(CCCCCC(=O)N3CCN(c4ccc(OC)cc4)CC3)c(=O)[nH]c2c1`, the activation was inactive: -28.5%.

On to `CCOC(=O)c1sc(NC(=O)c2cc(-c3ccc(F)cc3)on2)c(C(=O)OCC)c1C`, for which the activation is inactive: -4.43%.

With `CCOc1ccc(CNC(=O)c2ccc(Sc3ccc(Cl)cc3)c(NC(C)=O)c2)cc1OC`, the activation was inactive: -11.6%.

In the case of `COC(=O)C1=C(C)NC(C)=C(C(=O)OCCN2CCN(C(c3ccccc3)c3ccccc3)CC2)C1c1cccc([N+](=O)[O-])c1` (stereo not drawn), the activation was inactive: -31.1%.

For the molecule `CCS(=O)(=O)c1nc(S(=O)(=O)c2ccc(Cl)cc2)c(NCc2ccccc2Cl)s1`, the activation is inactive: -12.4%.

Consider `O=C(Nc1ccccc1C(=O)OCc1cc(=O)n2c3c(sc2n1)CCCC3)c1cccc(Cl)c1`, for which the activation is inactive: -21%.

For `CCc1ccccc1NC(=O)NCc1ccc2c(c1)CCN2C(=O)c1ccccc1`, the activation was inactive: -23.8%.

For the molecule `COC(=O)c1c(-c2ccc(Cl)cc2)noc1N1CCN(c2cccc(C(F)(F)F)c2)CC1`, the activation is inactive: 2.5%.

On to `O=C(CSc1nccn1Cc1ccccc1)NCc1ccccc1Cl`, for which the activation was inactive: -1.69%.

In the case of `CCCn1ccc2c(OCC(=O)NCc3ccccc3Cl)cccc2c1=O`, the activation was active: 68.8%.

As to `CCOC(=O)CC(NC(=O)N1CCC(CN2CCC(C)CC2)CC1)c1ccccc1` (stereo not drawn), the activation was inactive: 7.83%.

Regarding `Cc1cc(C)nc(NS(=O)(=O)c2ccc(NC(=O)COc3ccc(C(C)(C)C)cc3)cc2)n1`, the activation is inactive: 12.7%.

`CC1(C)[C@@H]2CC[C@@]1(C)C(=O)C2`: the activation was inactive: -6.21%.

With `Cc1cccc(C)c1Nc1c(-c2ccsc2)nc2ccc(Cl)cn12`, the activation was inactive: -16.3%.

As to `CC(C)Cn1cc(NC(=O)N2CCN(c3ccccc3F)CC2)c2ccccc2c1=O`, the activation was inactive: -11.7%.

For the molecule `COc1ccc(OC)c(CCNC(=O)c2cnn(-c3ccccc3)c2C2CCN(C(=O)OC(C)(C)C)CC2)c1`, the activation was inactive: -23.7%.

For the molecule `Cc1cccc(CNC(=O)CCn2ccc3cc(S(=O)(=O)N4CCCC4)ccc32)c1`, the activation is inactive: -27.8%.

On to `COc1ccc(-c2cn3nc(N4CCCC(C(=O)NCc5ccccc5Cl)C4)sc3n2)cc1` (stereo not drawn), for which the activation is inactive: -14.3%.

As for `COC(c1ccccc1)(c1ccccc1)[C@H](Oc1nc(C)cc(C)n1)C(=O)O`, the activation was inactive: -1.85%.

Consider `COC(=O)c1cc2oc3ccccc3c2n1Cc1cc(C)ccc1C`, for which the activation was inactive: -21.4%.

Turning to `COc1cc(OC)cc(N2CCN(S(=O)(=O)c3ccc(-n4cnnn4)cc3)CC2)c1`, the activation was inactive: -0.884%.

As to `O=c1c(N2CCN(c3cccc(C(F)(F)F)c3)CC2)csc2ccc(Cl)cc12`, the activation is inactive: -57.4%.

As to `Cc1ccccc1CSc1nc2c(sc3ccccc32)c(=O)n1CCCOC(C)C`, the activation is inactive: 20.7%.

`O=C1CC(c2ccccc2)Cc2[nH]c(=O)c(-c3nc(-c4ccc(Cl)cc4)cs3)cc21` (stereo not drawn): the activation was inactive: 4.55%.

Take `CCN1CCN(C(c2cccc(F)c2)c2c(O)cc(C)n(Cc3ccco3)c2=O)CC1` (stereo not drawn): the activation was inactive: -15.7%.

Consider `Cc1nn(C)c2c1c(-c1ccccc1)cc(=O)n2C(C)C(=O)NCc1ccc(F)cc1` (stereo not drawn), for which the activation was inactive: -14%.

Turning to `Cc1ccc(-n2nnnc2CNC(=O)C(C)C)cc1C`, the activation is inactive: 4.49%.

In the case of `CCSc1nnc2c(n1)OC(CC)N(C(C)=O)c1ccccc1-2` (stereo not drawn), the activation was inactive: 2.02%.

For `CC(=O)c1cccc(NC(c2ccc(F)cc2)c2nnc(-c3ccccc3)o2)c1` (stereo not drawn), the activation is inactive: 18.9%.

Regarding `Cc1nn(-c2ccccc2)c2sc(C(=O)Nc3ccccc3Br)cc12`, the activation is inactive: -0.778%.

For the molecule `Cc1ccc(NC(=O)CN2C(=O)C3(SCC(=O)N3c3cccc(Cl)c3)c3ccccc32)cc1C` (stereo not drawn), the activation is inactive: 21.3%.

Regarding `CCCN1C[C@H](CSC)C[C@@H]2c3cccc4[nH]cc(c34)C[C@H]21`, the activation is active: 79.4% and inactive: -7.97%.

For the molecule `Cc1cccc(C(=O)Nc2nnc(S(=O)(=O)N(C)Cc3ccco3)s2)c1`, the activation was inactive: 21.5%.

As for `COc1ccc(CCNC(=O)CSc2nc(-c3ccc(F)cc3)cc(C(F)(F)F)n2)cc1OC`, the activation was inactive: 7.81%.

Take `Nc1c(C(=O)Nc2ccc(C(=O)O)cc2)sc2nc3c(cc12)CCCC3`: the activation is inactive: 26.7%.

As to `Cc1ccc(NS(=O)(=O)c2ccc3c(c2)CCCN3C(=O)C2CCC2)cc1Cl`, the activation was inactive: -2.37%.

As for `O=C(Nc1nnc(S(=O)(=O)Nc2ccccc2)s1)c1ccccc1Cl`, the activation is inactive: -3.5%.

For `CCc1noc(-c2ccc(N3CCCCC3C)c([N+](=O)[O-])c2)n1` (stereo not drawn), the activation was inactive: -21.9%.

Consider `O=C(NCc1ccc2c(c1)CCN2C(=O)c1ccc(Cl)cc1)c1cccc(F)c1`, for which the activation was inactive: -10.1%.

As for `Cc1ccc(NC(=O)CCS(=O)(=O)c2cc3c4c(c2)CCN4C(=O)CC3)c(C)c1`, the activation is inactive: 5.73%.

As for `COc1cc(OC)cc(C(=O)Nc2ccc(S(=O)(=O)Nc3ncccn3)cc2)c1`, the activation was inactive: -1.11%.

As to `Cc1nc2nncn2c(NCc2ccc(F)cc2)c1C`, the activation was inactive: 43.8%.

With `COCCNc1nc2c(S(=O)(=O)c3ccc(C)c(C)c3)nnn2c2ccc(Cl)cc12`, the activation is inactive: 0.763%.

Turning to `CC(=O)Nc1ccccc1`, the activation was inactive: 3.53%.
